# Some of the results follow. The energies were worked out here from pooled read counts, against the library average; single values are noisy.
# Target: T1, Pho4 (S. cerevisiae) (UniProt P07270)
# T1 sequence: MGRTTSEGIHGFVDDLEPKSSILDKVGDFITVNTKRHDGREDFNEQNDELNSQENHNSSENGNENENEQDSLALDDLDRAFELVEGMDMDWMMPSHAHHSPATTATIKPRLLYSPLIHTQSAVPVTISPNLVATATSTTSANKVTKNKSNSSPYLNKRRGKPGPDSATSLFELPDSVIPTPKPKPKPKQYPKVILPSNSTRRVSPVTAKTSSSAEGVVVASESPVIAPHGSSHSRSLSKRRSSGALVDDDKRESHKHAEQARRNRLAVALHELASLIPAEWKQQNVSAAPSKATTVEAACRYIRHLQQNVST
# Test: relative binding free energy (BET-seq); higher = weaker binding
# Settings: reference: library average
row,Sequence,relative binding free energy
1,TCGTACACGTGTTTTG,0.06 kcal/mol
2,CGTCTCACGTGGTTTG,0.16 kcal/mol
3,GTATGCACGTGTTGCA,-0.08 kcal/mol
4,AGTATCACGTGAGGAG,0.21 kcal/mol
5,TTTGGCACGTGAGATC,0.24 kcal/mol
6,TGTGTCACGTGCGGAT,0.11 kcal/mol
7,AGGGGCACGTGGATAG,-0.02 kcal/mol
8,TGGAGCACGTGTGCCG,-0.03 kcal/mol
9,TATCTCACGTGGGGGT,0.06 kcal/mol
10,ATCGGCACGTGTGGGC,-0.07 kcal/mol
11,GGGTCCACGTGTAGTT,0.04 kcal/mol
12,CTGTTCACGTGAGATA,0.37 kcal/mol
13,TAATGCACGTGGCTTG,-0.08 kcal/mol
14,AGTGTCACGTGGAAAT,0.14 kcal/mol
15,TTGCACACGTGTAAGG,0 kcal/mol
16,AGTTCCACGTGGGATA,0.07 kcal/mol
17,TGGAACACGTGTGCTG,0.06 kcal/mol
18,ACGGTCACGTGCAGGT,0.1 kcal/mol
19,GAGCGCACGTGTGAGG,-0.05 kcal/mol
20,AGTTACACGTGTGGAC,0.23 kcal/mol
21,AGGGTCACGTGGTGGA,0.1 kcal/mol
22,TTGTTCACGTGCGTAA,0.22 kcal/mol
23,GTTCGCACGTGTGGCG,0 kcal/mol
24,CGTTGCACGTGGTTGT,-0.06 kcal/mol
25,TGGGTCACGTGTTAAT,0.27 kcal/mol

row,Sequence,relative binding free energy
1,GTTGCCACGTGTTGGA,-0.03 kcal/mol
2,AGTCTCACGTGGTAAT,0.21 kcal/mol
3,TCGCTCACGTGGTTGT,0.18 kcal/mol
4,AGTGTCACGTGGCGCG,-0.02 kcal/mol
5,TTTTTCACGTGAAGAC,0.43 kcal/mol
6,TCTGTCACGTGTTAGT,0 kcal/mol
7,ACGTTCACGTGGGTAT,0.11 kcal/mol
8,CTTTGCACGTGACGTG,0.12 kcal/mol
9,ACATTCACGTGGAGGT,0.21 kcal/mol
10,GCTGTCACGTGTGCGT,0.04 kcal/mol
11,CGGCCCACGTGAGGGG,-0.01 kcal/mol
12,TATTTCACGTGTAACA,0.37 kcal/mol
13,GTAGTCACGTGTCAGT,0.18 kcal/mol
14,TTTGGCACGTGAAGGC,0.12 kcal/mol
15,GGGATCACGTGATTGA,0.26 kcal/mol
16,TATGGCACGTGAAGTG,0.17 kcal/mol
17,ATTGTCACGTGTCGGG,0.1 kcal/mol
18,CGGGTCACGTGGAAGG,0.22 kcal/mol
19,TTGTACACGTGGTGCC,-0.01 kcal/mol
20,CATGGCACGTGTTGTC,-0.04 kcal/mol
21,TTGTTCACGTGAGTTA,0.31 kcal/mol
22,ATGAACACGTGCTTGT,-0.07 kcal/mol
23,CTATGCACGTGTATGG,-0.09 kcal/mol
24,TGCCGCACGTGGGGTA,-0.25 kcal/mol
25,GGTTGCACGTGTGGGG,0.09 kcal/mol

row,Sequence,relative binding free energy
1,GTTGTCACGTGGGTGT,0.07 kcal/mol
2,AGAGGCACGTGGTGAT,-0.1 kcal/mol
3,AGATTCACGTGAATTG,0.21 kcal/mol
4,GGAGGCACGTGAGGTT,0.25 kcal/mol
5,TCCGTCACGTGGTAGT,0.23 kcal/mol
6,TGTATCACGTGTGAGC,0.1 kcal/mol
7,TTGGACACGTGGAAAG,0.16 kcal/mol
8,GCGGCCACGTGGAGGT,-0.05 kcal/mol
9,ATTGGCACGTGGAGTT,-0.05 kcal/mol
10,GGATGCACGTGCGTTG,-0.05 kcal/mol
11,GAGAACACGTGGGGAG,0.01 kcal/mol
12,AGTATCACGTGTTGTG,0.11 kcal/mol
13,AATAACACGTGGGTTA,-0.22 kcal/mol
14,TGTCACACGTGGGTCT,-0.14 kcal/mol
15,CGGGCCACGTGGTGGG,-0.1 kcal/mol
16,GGGTTCACGTGGGGTT,0.22 kcal/mol
17,AGGGGCACGTGTTCGT,-0.05 kcal/mol
18,ATATGCACGTGTGATG,-0.03 kcal/mol
19,AGGGCCACGTGGGTGT,-0.2 kcal/mol
20,GGGCGCACGTGTTCGT,0.09 kcal/mol
21,GTTATCACGTGGCGAG,0.32 kcal/mol
22,TTTGACACGTGACTTG,0.06 kcal/mol
23,TTTGTCACGTGAATGC,0.37 kcal/mol
24,AGGTTCACGTGTATTG,0.14 kcal/mol
25,GGAGTCACGTGAAAGT,0.41 kcal/mol

row,Sequence,relative binding free energy
1,ATGGACACGTGGTAGC,0.07 kcal/mol
2,ATGTTCACGTGATTAT,0.35 kcal/mol
3,TTGAACACGTGGTGGC,0.04 kcal/mol
4,CCTGGCACGTGGGGGT,-0.23 kcal/mol
5,CATAACACGTGGGGGG,-0.13 kcal/mol
6,GGTGGCACGTGGGCCA,-0.17 kcal/mol
7,AGTTTCACGTGTGTGC,0.37 kcal/mol
8,TGGAGCACGTGGAGGT,-0.09 kcal/mol
9,GGCTGCACGTGGGCGT,-0.13 kcal/mol
10,GGGGTCACGTGAAGGG,0.3 kcal/mol
11,GATTTCACGTGATGCT,0.3 kcal/mol
12,TGTGGCACGTGGGGTC,-0.16 kcal/mol
13,ACTTGCACGTGGGGGC,-0.16 kcal/mol
14,TGCGTCACGTGGAAGG,0.03 kcal/mol
15,TTGGGCACGTGAATAG,0.07 kcal/mol
16,ATAATCACGTGTTTGC,0.08 kcal/mol
17,AGGCACACGTGTATGT,0.01 kcal/mol
18,GGTGTCACGTGTAGCT,0.14 kcal/mol
19,GGTTACACGTGATTAA,0 kcal/mol
20,TTTAGCACGTGCGTAT,-0.02 kcal/mol
21,TAGGTCACGTGGAGAG,0.18 kcal/mol
22,ATCATCACGTGGTGTG,0.09 kcal/mol
23,ATGTACACGTGGTCGG,0.05 kcal/mol
24,TGGAGCACGTGAGCAG,0.11 kcal/mol
25,ATGGGCACGTGGGCGG,-0.23 kcal/mol

row,Sequence,relative binding free energy
1,GCGCTCACGTGTTTGG,0.13 kcal/mol
2,TTGGTCACGTGCATTT,0.08 kcal/mol
3,TGAAGCACGTGATGTG,0.08 kcal/mol
4,TAGTTCACGTGTCGAT,0.2 kcal/mol
5,TTTATCACGTGAGGCA,0.33 kcal/mol
6,GAGGGCACGTGGCGGA,-0.07 kcal/mol
7,CGTGGCACGTGATAAA,0.09 kcal/mol
8,GGGGACACGTGAGGTG,0.27 kcal/mol
9,TAGTACACGTGTTGTA,0.07 kcal/mol
10,GTGGGCACGTGCGAGT,-0.14 kcal/mol
11,CTAGGCACGTGAAGGT,0.13 kcal/mol
12,TTTAACACGTGGAATA,0.09 kcal/mol
13,GTTGTCACGTGGACAT,0.08 kcal/mol
14,GTCGGCACGTGGGTGG,-0.14 kcal/mol
15,GAAGACACGTGGGTTA,-0.09 kcal/mol
16,ACGGTCACGTGGGGAG,-0.06 kcal/mol
17,GTAAGCACGTGCGAGT,-0.02 kcal/mol
18,TTTGGCACGTGTCTTC,-0.02 kcal/mol
19,GAATGCACGTGCGAGT,0.06 kcal/mol
20,AATTTCACGTGAATAT,0.39 kcal/mol
21,AGGGTCACGTGTGCCG,-0.03 kcal/mol
22,AGTTTCACGTGGCTGT,0.32 kcal/mol
23,TTGTTCACGTGGGATT,0.23 kcal/mol
24,TACTTCACGTGGATAT,0.25 kcal/mol
25,GTTATCACGTGAGTTG,0.35 kcal/mol

row,Sequence,relative binding free energy
1,GTGGGCACGTGTCATG,0.01 kcal/mol
2,TCGATCACGTGGGGAT,-0.04 kcal/mol
3,ATGGACACGTGGTAAT,0.04 kcal/mol
4,TATATCACGTGTGTCA,0.01 kcal/mol
5,AGGATCACGTGGCGAG,0.06 kcal/mol
6,CGGTGCACGTGTATCG,0.04 kcal/mol
7,CGGATCACGTGGGTGG,-0.02 kcal/mol
8,GTATGCACGTGTCTGG,0.11 kcal/mol
9,CCAGGCACGTGGATGG,-0.1 kcal/mol
10,GGGCGCACGTGGGTTA,-0.1 kcal/mol
11,GTGTTCACGTGAGGAG,0.39 kcal/mol
12,GCTTTCACGTGGATAG,0.43 kcal/mol
13,TAGTTCACGTGTGGCT,0.34 kcal/mol
14,TGATACACGTGAATGT,0.25 kcal/mol
15,GTGGTCACGTGGGATA,-0.03 kcal/mol
16,ATAATCACGTGGGCAG,0 kcal/mol
17,GGGTTCACGTGGGGCT,0.31 kcal/mol
18,TCAGGCACGTGCGTTG,-0.23 kcal/mol
19,TTTCACACGTGTTGAT,0.02 kcal/mol
20,TCTGGCACGTGCATGT,-0.05 kcal/mol
21,TACTGCACGTGTTGTT,0.04 kcal/mol
